# Measured values from the supplement of paper PMC8728848.
# Some of the results follow.
# B1: AFCNVH (Aspergillus fumigatus) (protein)
# chain: MSLRGFHTTCDTIVLKDKHILSSRCKRPDGTYSFSEIDLNDCLGNNNGKFVWGGESFVDSASQVNLALEGGEGRPMLHAQLNDWHGSVQSASVNLGECIQNEAGGLEYMHC
# How the values were obtained:
# Assay in all cases: glycan array binding signal (z-score within array); higher = stronger binding
# Details in all cases: glycan notation: IUPAC condensed, linker removed
# [1] = molecular target: Gal(b1-4)GlcNAc(b1-2)[Gal(b1-4)GlcNAc(b1-6)]Man(a1-6)[Gal(b1-4)GlcNAc(b1-2)Man(a1-3)]Man(b1-4)GlcNAc(b1-4)[Fuc(a1-6)]GlcNAc
# How it was run: (§1)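 Glycan array data were curated from 3228 arrays in the Consortium for Functional Glycomics database and kept only where the protein sequence was available. Glycan names were converted to IUPAC-condensed notation, and columns mapping to the same glycan were averaged. The binding signal is a within-array Z-score, averaged across arrays of the same protein sequence at different concentrations or buffers and across linkers. Negative Z-scores can be read as non-binding.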
# [2] = molecular target: Gal(b1-4)GlcNAc(b1-2)[Gal(b1-4)GlcNAc(b1-6)]Man(a1-6)[GlcNAc(b1-4)][Gal(b1-4)GlcNAc(b1-2)Man(a1-3)]Man(b1-4)GlcNAc(b1-4)GlcNAc
# How it was run: as §1
# [3] = molecular target: Gal(b1-4)GlcNAc(b1-2)[Gal(b1-4)GlcNAc(b1-6)]Man(a1-6)[GlcNAc(b1-4)][Gal(b1-4)GlcNAc(b1-2)[Gal(b1-4)GlcNAc(b1-4)]Man(a1-3)]Man(b1-4)GlcNAc(b1-4)[Fuc(a1-6)]GlcNAc
# How it was run: as §1
# [4] = molecular target: Gal(b1-4)GlcNAc(b1-3)Gal(b1-3)GalNAc
# How it was run: as §1
# [5] = molecular target: Gal(b1-4)GlcNAc(b1-3)Gal(b1-3)GlcNAc
# How it was run: as §1
# [6] = molecular target: Gal(b1-4)GlcNAc(b1-3)Gal(b1-4)Glc
# How it was run: as §1
# [7] = molecular target: Gal(b1-4)GlcNAc(b1-3)Gal(b1-4)GlcNAc
# How it was run: as §1
# [8] = molecular target: Gal(b1-4)GlcNAc(b1-3)Gal(b1-4)GlcNAc(b1-2)Man(a1-3)[Gal(b1-4)GlcNAc(b1-3)Gal(b1-4)GlcNAc(b1-2)Man(a1-6)]Man(b1-4)GlcNAc(b1-4)GlcNAc
# How it was run: as §1
# [9] = molecular target: Gal(b1-4)GlcNAc(b1-3)Gal(b1-4)GlcNAc(b1-2)Man(a1-3)[Gal(b1-4)GlcNAc(b1-3)Gal(b1-4)GlcNAc(b1-2)Man(a1-6)]Man(b1-4)GlcNAc(b1-4)[Fuc(a1-6)]GlcNAc
# How it was run: as §1
# [10] = molecular target: Gal(b1-4)GlcNAc(b1-3)Gal(b1-4)GlcNAc(b1-2)[Gal(b1-4)GlcNAc(b1-3)Gal(b1-4)GlcNAc(b1-6)]Man(a1-6)[Gal(b1-4)GlcNAc(b1-3)Gal(b1-4)GlcNAc(b1-2)Man(a1-3)]Man(b1-4)GlcNAc(b1-4)GlcNAc
# How it was run: as §1
# [11] = molecular target: Gal(b1-4)GlcNAc(b1-3)Gal(b1-4)GlcNAc(b1-2)[Gal(b1-4)GlcNAc(b1-3)Gal(b1-4)GlcNAc(b1-6)]Man(a1-6)[Gal(b1-4)GlcNAc(b1-3)Gal(b1-4)GlcNAc(b1-2)Man(a1-3)]Man(b1-4)GlcNAc(b1-4)[Fuc(a1-6)]GlcNAc
# How it was run: as §1
# [12] = molecular target: Gal(b1-4)GlcNAc(b1-3)Gal(b1-4)GlcNAc(b1-3)Gal(b1-4)GlcNAc
# How it was run: as §1
# [13] = molecular target: Gal(b1-4)GlcNAc(b1-3)Gal(b1-4)GlcNAc(b1-3)Gal(b1-4)GlcNAc(b1-2)Man(a1-3)[Gal(b1-4)GlcNAc(b1-3)Gal(b1-4)GlcNAc(b1-3)Gal(b1-4)GlcNAc(b1-2)Man(a1-6)]Man(b1-4)GlcNAc(b1-4)GlcNAc
# How it was run: as §1
# [14] = molecular target: Gal(b1-4)GlcNAc(b1-3)Gal(b1-4)GlcNAc(b1-3)Gal(b1-4)GlcNAc(b1-2)Man(a1-3)[Gal(b1-4)GlcNAc(b1-3)Gal(b1-4)GlcNAc(b1-3)Gal(b1-4)GlcNAc(b1-2)Man(a1-6)]Man(b1-4)GlcNAc(b1-4)[Fuc(a1-6)]GlcNAc
# How it was run: as §1
# [15] = molecular target: Gal(b1-4)GlcNAc(b1-3)Gal(b1-4)GlcNAc(b1-3)Gal(b1-4)GlcNAc(b1-2)[Gal(b1-4)GlcNAc(b1-3)Gal(b1-4)GlcNAc(b1-3)Gal(b1-4)GlcNAc(b1-6)]Man(a1-6)[Gal(b1-4)GlcNAc(b1-3)Gal(b1-4)GlcNAc(b1-3)Gal(b1-4)GlcNAc(b1-2)Man(a1-3)]Man(b1-4)GlcNAc(b1-4)[Fuc(a1-6)]GlcNAc
# How it was run: as §1
# [16] = molecular target: Gal(b1-4)GlcNAc(b1-3)Gal(b1-4)GlcNAc(b1-3)Gal(b1-4)GlcNAc(b1-3)Gal(b1-4)GlcNAc(b1-2)Man(a1-3)[Gal(b1-4)GlcNAc(b1-3)Gal(b1-4)GlcNAc(b1-3)Gal(b1-4)GlcNAc(b1-3)Gal(b1-4)GlcNAc(b1-2)Man(a1-6)]Man(b1-4)GlcNAc(b1-4)GlcNAc
# How it was run: as §1
# [17] = molecular target: Gal(b1-4)GlcNAc(b1-3)Gal(b1-4)GlcNAc(b1-3)Gal(b1-4)GlcNAc(b1-3)Gal(b1-4)GlcNAc(b1-2)Man(a1-3)[Gal(b1-4)GlcNAc(b1-3)Gal(b1-4)GlcNAc(b1-3)Gal(b1-4)GlcNAc(b1-3)Gal(b1-4)GlcNAc(b1-2)Man(a1-6)]Man(b1-4)GlcNAc(b1-4)[Fuc(a1-6)]GlcNAc
# How it was run: as §1
# [18] = molecular target: Gal(b1-4)GlcNAc(b1-3)Gal(b1-4)GlcNAc(b1-3)Gal(b1-4)GlcNAc(b1-3)Gal(b1-4)GlcNAc(b1-2)[Gal(b1-4)GlcNAc(b1-3)Gal(b1-4)GlcNAc(b1-3)Gal(b1-4)GlcNAc(b1-3)Gal(b1-4)GlcNAc(b1-6)]Man(a1-6)[Gal(b1-4)GlcNAc(b1-3)Gal(b1-4)GlcNAc(b1-3)Gal(b1-4)GlcNAc(b1-3)Gal(b1-4)GlcNAc(b1-2)Man(a1-3)]Man(b1-4)GlcNAc(b1-4)[Fuc(a1-6)]GlcNAc
# How it was run: as §1
# [19] = molecular target: Gal(b1-4)GlcNAc(b1-3)Gal(b1-4)GlcNAc(b1-3)Gal(b1-4)GlcNAc(b1-3)Gal(b1-4)GlcNAc(b1-3)Gal(b1-4)GlcNAc(b1-2)Man(a1-3)[Gal(b1-4)GlcNAc(b1-3)Gal(b1-4)GlcNAc(b1-3)Gal(b1-4)GlcNAc(b1-3)Gal(b1-4)GlcNAc(b1-3)Gal(b1-4)GlcNAc(b1-2)Man(a1-6)]Man(b1-4)GlcNAc(b1-4)GlcNAc
# How it was run: as §1
# [20] = molecular target: Gal(b1-4)GlcNAc(b1-3)Gal(b1-4)GlcNAc(b1-3)Gal(b1-4)GlcNAc(b1-3)Gal(b1-4)GlcNAc(b1-3)Gal(b1-4)GlcNAc(b1-2)Man(a1-3)[Gal(b1-4)GlcNAc(b1-3)Gal(b1-4)GlcNAc(b1-3)Gal(b1-4)GlcNAc(b1-3)Gal(b1-4)GlcNAc(b1-3)Gal(b1-4)GlcNAc(b1-2)Man(a1-6)]Man(b1-4)GlcNAc(b1-4)[Fuc(a1-6)]GlcNAc
# How it was run: as §1
# [21] = molecular target: Gal(b1-4)GlcNAc(b1-3)Gal(b1-4)GlcNAc(b1-3)Gal(b1-4)GlcNAc(b1-3)Gal(b1-4)GlcNAc(b1-3)Gal(b1-4)GlcNAc(b1-2)[Gal(b1-4)GlcNAc(b1-3)Gal(b1-4)GlcNAc(b1-3)Gal(b1-4)GlcNAc(b1-3)Gal(b1-4)GlcNAc(b1-3)Gal(b1-4)GlcNAc(b1-6)]Man(a1-6)[Gal(b1-4)GlcNAc(b1-3)Gal(b1-4)GlcNAc(b1-3)Gal(b1-4)GlcNAc(b1-3)Gal(b1-4)GlcNAc(b1-3)Gal(b1-4)GlcNAc(b1-2)Man(a1-3)]Man(b1-4)GlcNAc(b1-4)[Fuc(a1-6)]GlcNAc
# How it was run: as §1
# [22] = molecular target: Gal(b1-4)GlcNAc(b1-3)Gal(b1-4)GlcNAc(b1-3)Gal(b1-4)GlcNAc(b1-3)Gal(b1-4)GlcNAc(b1-3)Gal(b1-4)GlcNAc(b1-3)Gal(b1-4)GlcNAc(b1-2)Man(a1-3)[Gal(b1-4)GlcNAc(b1-3)Gal(b1-4)GlcNAc(b1-3)Gal(b1-4)GlcNAc(b1-3)Gal(b1-4)GlcNAc(b1-3)Gal(b1-4)GlcNAc(b1-3)Gal(b1-4)GlcNAc(b1-2)Man(a1-6)]Man(b1-4)GlcNAc(b1-4)GlcNAc
# How it was run: as §1
# [23] = molecular target: Gal(b1-4)GlcNAc(b1-3)Gal(b1-4)GlcNAc(b1-3)GalNAc
# How it was run: as §1
binder,measurement,setting,value
B1,glycan array binding signal (z-score),[1],-0.378
same,glycan array binding signal (z-score),[2],-0.12
same,glycan array binding signal (z-score),[3],-0.36
same,glycan array binding signal (z-score),[4],-0.399
same,glycan array binding signal (z-score),[5],-0.444
same,glycan array binding signal (z-score),[6],-0.356
same,glycan array binding signal (z-score),[7],-0.186
same,glycan array binding signal (z-score),[8],-0.311
same,glycan array binding signal (z-score),[9],-0.278
same,glycan array binding signal (z-score),[10],-0.102
same,glycan array binding signal (z-score),[11],0.152
same,glycan array binding signal (z-score),[12],-0.18
same,glycan array binding signal (z-score),[13],-0.207
same,glycan array binding signal (z-score),[14],-0.103
same,glycan array binding signal (z-score),[15],0.177
same,glycan array binding signal (z-score),[16],-0.056
same,glycan array binding signal (z-score),[17],-0.138
same,glycan array binding signal (z-score),[18],-0.033
same,glycan array binding signal (z-score),[19],-0.158
same,glycan array binding signal (z-score),[20],0.107
same,glycan array binding signal (z-score),[21],0.243
same,glycan array binding signal (z-score),[22],0.173
same,glycan array binding signal (z-score),[23],-0.376
